From US20220226313A1, “COMBINATION THERAPIES THAT INCLUDE AN AGENT THAT PROMOTES GLUCOSE OXIDATION AND AN INHIBITOR OF PYRUVATE DEHYDROGENASE KINASE” (IMBRIA PHARMACEUTICALS, INC., priority 2019, published 2022)

Biological target: Potassium Channel hERG (Homo sapiens, UniProt Q12809)
Assay: in vitro

Chain of UniProt Q12809 (Q12809 whole entry): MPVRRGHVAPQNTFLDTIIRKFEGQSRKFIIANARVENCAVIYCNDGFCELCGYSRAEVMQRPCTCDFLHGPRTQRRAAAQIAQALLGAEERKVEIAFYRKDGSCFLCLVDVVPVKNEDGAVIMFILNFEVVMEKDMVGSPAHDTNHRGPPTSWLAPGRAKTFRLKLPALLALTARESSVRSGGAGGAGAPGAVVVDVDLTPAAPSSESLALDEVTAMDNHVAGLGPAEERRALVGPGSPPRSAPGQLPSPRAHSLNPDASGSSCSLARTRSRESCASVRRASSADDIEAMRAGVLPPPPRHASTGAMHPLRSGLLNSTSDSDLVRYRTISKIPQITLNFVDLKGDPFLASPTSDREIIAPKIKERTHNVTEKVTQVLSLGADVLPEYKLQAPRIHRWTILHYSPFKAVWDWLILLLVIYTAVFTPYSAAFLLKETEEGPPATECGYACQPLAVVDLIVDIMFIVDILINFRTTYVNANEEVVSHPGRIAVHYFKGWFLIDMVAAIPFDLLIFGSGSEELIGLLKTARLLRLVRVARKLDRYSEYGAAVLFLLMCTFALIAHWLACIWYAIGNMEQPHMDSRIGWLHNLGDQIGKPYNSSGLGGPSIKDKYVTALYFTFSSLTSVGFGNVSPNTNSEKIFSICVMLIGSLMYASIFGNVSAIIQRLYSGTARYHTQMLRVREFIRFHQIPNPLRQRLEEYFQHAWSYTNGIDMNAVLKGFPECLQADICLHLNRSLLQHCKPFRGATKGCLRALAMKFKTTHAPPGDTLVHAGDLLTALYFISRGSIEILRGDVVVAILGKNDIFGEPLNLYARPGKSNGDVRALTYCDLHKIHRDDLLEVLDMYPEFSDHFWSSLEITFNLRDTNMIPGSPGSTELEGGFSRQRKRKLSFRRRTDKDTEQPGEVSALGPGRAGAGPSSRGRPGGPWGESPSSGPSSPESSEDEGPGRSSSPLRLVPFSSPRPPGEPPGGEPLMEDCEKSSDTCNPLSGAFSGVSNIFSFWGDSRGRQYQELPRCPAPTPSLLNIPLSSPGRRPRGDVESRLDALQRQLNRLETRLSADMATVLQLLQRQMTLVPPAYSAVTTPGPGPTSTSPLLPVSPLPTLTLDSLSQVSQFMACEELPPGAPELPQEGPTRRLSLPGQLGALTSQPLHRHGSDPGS

Work on `COc1ccc(CN2CCN(CCO)CC2)c(OC)c1OC` [CV-8814, 2-(4-(2,3,4-trimethoxybenzyl)piperazin-1-yl)ethan-1-ol] yielded an inhibition at 10 µM of less than 50%.
